Results published in the supplement of paper PMC12217912.
This is one part of the list. Sequences were assembled here from the parent chain. Inactive controls read about 0.05.

B1: TEV protease; numbered along this chain (parent)
chain: MGESLFKGPRDYNPISSSICHLTNESDGHTTSLYGIGFGPFIITNKHLFRRNNGTLVVQSLHGVFKVKDTTTLQQHLVDGRDMIIIRMPKDFPPFPQKLKFREPQREERICLVTTNFQTKSMSSMVSDTSCTFPSGDGIFWKHWIQTKDGQCGSPLVSTRDGFIVGIHSASNFTNTNNYFTSVPKNFMELLTNQEAQQWVSGWRLNADSVLWGGHKVFMVKPEEPFQPVKEATQL

Variants of: B1
Assay: raw area under fraction-flipped curve 0-4 h after induction (AUC4h, not background-subtracted), DNA-recorder readout of cleavage of the substrate (dimensionless); higher = more cleavage of the substrate by the protease variant
Conditions: temperature: 34 °C; time window: 0-4 h after rhamnose induction
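Further: Bxb1 expression induced with 0.2% (w/v) L-rhamnose at OD600 near 0.5, cultures sampled hourly, flipped fraction per protease–substrate barcode pair counted by paired-end Illumina sequencing.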

Variant | area with substrate ENLYDQS | area with substrate ENLYEQS | area with substrate ENLYHQS | area with substrate ENLYLQS | area with substrate ENLYPQS | area with substrate ENLYVQS | area with substrate ENLYYQS | area with substrate ENLYCQS | area with substrate ENLYGQS | area with substrate ENLYKQS | area with substrate ENLYMQS | area with substrate ENLYNQS | area with substrate ENLYQQS | area with substrate ENLYRQS | area with substrate ENLYSQS | area with substrate ENLYWQS | area with substrate ENLYIQS | area with substrate ENLYTQS
E25T | 0.0541 | 0.0729 | 0.0815 | 0.0846 | 0.0659 | 0.121 | 0.0654 |  |  |  |  |  |  |  |  |  |  | 
H143K | 0.0493 | 0.052 | 0.0488 |  |  | 0.0628 | 0.0607 | 0.0384 | 0.0613 | 0.0535 | 0.0405 | 0.0603 | 0.0616 | 0.0582 | 0.0508 | 0.0616 |  | 
N175D | 0.0674 | 0.0441 | 0.0617 | 0.0649 | 0.0581 | 0.0834 | 0.0573 | 0.0478 | 0.0632 | 0.0326 | 0.0588 | 0.0524 |  | 0.0845 | 0.0475 | 0.0543 | 0.0588 | 0.0658
F41L | 0.0614 | 0.0643 | 0.0624 | 0.118 | 0.0727 | 0.147 |  | 0.0752 | 0.0443 | 0.0594 | 0.103 | 0.0556 | 0.0622 | 0.0645 | 0.0563 | 0.081 | 0.0998 | 0.0774
M122W | 0.0636 | 0.0673 | 0.0705 | 0.0801 | 0.0622 | 0.0972 | 0.0631 |  | 0.0547 |  | 0.114 | 0.0721 |  |  | 0.0703 | 0.0924 | 0.128 | 0.0917
S121L | 0.0604 | 0.0751 | 0.0649 | 0.078 | 0.075 | 0.0915 | 0.0697 |  | 0.0676 | 0.0612 |  | 0.0661 | 0.0659 |  | 0.0964 | 0.0669 | 0.0831 | 
K66V | 0.0576 | 0.0649 | 0.0841 | 0.0762 |  |  |  | 0.122 |  | 0.074 |  |  | 0.0535 |  | 0.0993 | 0.106 | 0.114 | 
H215E |  | 0.0654 | 0.0646 | 0.045 | 0.0743 |  |  | 0.063 | 0.0538 | 0.0542 | 0.0562 | 0.0626 |  | 0.0467 | 0.0504 |  | 0.0576 | 
G54Y | 0.0685 | 0.0643 | 0.0566 | 0.0303 | 0.0829 |  |  | 0.0592 |  |  | 0.0625 |  | 0.0712 | 0.0562 | 0.0385 | 0.0724 | 0.0837 | 
W141Q | 0.0525 | 0.062 | 0.0574 |  | 0.0554 | 0.0572 | 0.0433 |  | 0.0689 | 0.0674 |  | 0.0538 | 0.0645 |  | 0.0527 | 0.0512 | 0.0496 | 
H76I | 0.0471 | 0.0621 |  |  | 0.0606 |  | 0.0513 |  |  | 0.0578 |  | 0.0824 | 0.0839 | 0.0538 | 0.059 |  |  | 
H76Q | 0.0579 | 0.0629 |  |  | 0.0752 |  |  |  | 0.128 |  |  | 0.0646 |  | 0.0554 | 0.0944 | 0.0686 |  | 
L211C | 0.0619 | 0.103 | 0.0803 |  |  | 0.0782 | 0.0633 |  | 0.0727 | 0.0611 | 0.0977 | 0.08 | 0.0511 | 0.0709 |  | 0.0911 | 0.104 | 0.0954
L205E | 0.0605 | 0.0529 |  |  |  | 0.0788 |  |  | 0.062 |  | 0.0538 |  |  |  | 0.0595 | 0.0537 |  | 
S130C | 0.048 |  | 0.0846 |  |  |  |  |  |  | 0.0525 |  |  |  |  |  |  |  | 
